Measured values published in the supplement of paper PMC8285479.
Structures can show the parent of a compound that is named as a salt. ± gives the standard deviation of the averaged measurements. Whole data set: some 1,900 compounds, median “normalised cell viability (NPI; 0 = phenylarsine oxide control, 1 = DMSO control)” near 1, cut for the lowest 2% near 0.039. This is one part of the list.

Test system: NCI-H1944
Experiment: normalised cell viability (NPI; 0 = phenylarsine oxide control, 1 = DMSO control) (fraction of DMSO control); NCI-H1944 is a non-small cell lung cancer line; higher = more viable cells (less compound toxicity)
Conditions: 6 days
[1] = glucocorticoid arm: hydrocortisone 2.75 uM co-treatment, compound 1 µM
[2] = glucocorticoid arm: hydrocortisone 2.75 uM co-treatment, compound 5 µM
[3] = glucocorticoid arm: hydrocortisone 2.75 uM pre-treated 2 days and continued, compound 1 µM
[4] = glucocorticoid arm: hydrocortisone 2.75 uM pre-treated 2 days and continued, compound 5 µM
[5] = glucocorticoid arm: vehicle, compound 1 µM
[6] = glucocorticoid arm: vehicle, compound 5 µM
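Note: CTB read-out in 384-well plates, mean of triplicate wells, normalised per plate against 1 µM phenylarsine oxide and 0.1% DMSO, compounds added 24 h after seeding.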

Compound: O=C(NCc1cccc(O)c1)Nc1nc(-c2ccncc2)cs1
- normalised cell viability [1]: 0.994 ± 0.01
- normalised cell viability [2]: 0.978 ± 0.021
- normalised cell viability [3]: 1.01 ± 0.014
- normalised cell viability [4]: 0.971 ± 0.035
- normalised cell viability [5]: 0.984 ± 0.0069
- normalised cell viability [6]: 0.816 ± 0.054

Compound: NCCS [Cysteamine hydrochloride]
- normalised cell viability [1]: 0.998 ± 0.011
- normalised cell viability [2]: 0.961 ± 0.03
- normalised cell viability [3]: 0.995 ± 0.014
- normalised cell viability [4]: 0.985 ± 0.031
- normalised cell viability [5]: 0.9837 ± 0.0058
- normalised cell viability [6]: 0.988 ± 0.011

Compound: COCCOC(=O)C1=C(C)NC(C)=C(C(=O)OC(C)C)C1c1cccc([N+](=O)[O-])c1 (stereo unspecified) [Nimodipine]
- normalised cell viability [1]: 1.013 ± 0.0058
- normalised cell viability [2]: 1.05 ± 0.021
- normalised cell viability [3]: 1.01 ± 0.012
- normalised cell viability [4]: 1.06 ± 0.074
- normalised cell viability [5]: 0.991 ± 0.0072
- normalised cell viability [6]: 1 ± 0.014

Compound: CN1C(C(=O)Nc2ccccn2)=C(O)c2ccccc2S1(=O)=O [Piroxicam]
- normalised cell viability [1]: 1.01
- normalised cell viability [2]: 1.03 ± 0.034
- normalised cell viability [3]: 1.023 ± 0.0058
- normalised cell viability [4]: 0.893 ± 0.22
- normalised cell viability [5]: 1.005 ± 0.0087
- normalised cell viability [6]: 1.01 ± 0.011

Compound: CCN(CC)C(=O)c1ccc(O)c(OC)c1 [Vanillic acid diethylamide]
- normalised cell viability [1]: 0.999 ± 0.01
- normalised cell viability [2]: 0.971 ± 0.02
- normalised cell viability [3]: 1.002 ± 0.0072
- normalised cell viability [4]: 0.977 ± 0.027
- normalised cell viability [5]: 0.9923 ± 0.0051
- normalised cell viability [6]: 0.992 ± 0.0035

Compound: NC1(C(=O)O)CC1 [1-Aminocyclopropanecarboxylic acid hydrochloride]
- normalised cell viability [1]: 0.983 ± 0.0082
- normalised cell viability [2]: 1.01 ± 0.021
- normalised cell viability [3]: 0.995 ± 0.002
- normalised cell viability [4]: 0.997 ± 0.0042
- normalised cell viability [5]: 0.9963 ± 0.004
- normalised cell viability [6]: 1.001 ± 0.0081

Compound: O=C(c1ccc(F)cc1)C1CCN(CCn2c(=O)[nH]c3ccccc3c2=O)CC1 [Ketanserin]
- normalised cell viability [1]: 0.975 ± 0.023
- normalised cell viability [2]: 0.976 ± 0.033
- normalised cell viability [3]: 1 ± 0.0092
- normalised cell viability [4]: 1.003 ± 0.0058
- normalised cell viability [5]: 0.986 ± 0.01
- normalised cell viability [6]: 0.9933 ± 0.0059

Compound: O=C(c1ccc(F)cc1)C1CCN(CCn2c(=O)[nH]c3ccccc3c2=O)CC1 [Ketanserin tartrate]
- normalised cell viability [1]: 1.02 ± 0.01
- normalised cell viability [2]: 0.9957 ± 0.0038
- normalised cell viability [3]: 1.02 ± 0.011
- normalised cell viability [4]: 1.01 ± 0.011
- normalised cell viability [5]: 1.01
- normalised cell viability [6]: 1.01 ± 0.01

Compound: NC(=O)Nc1cc(-c2cccc(F)c2)sc1C(=O)N[C@H]1CCCNC1
- normalised cell viability [1]: 0.65 ± 0.013
- normalised cell viability [2]: 0.45 ± 0.024
- normalised cell viability [3]: 0.93 ± 0.021
- normalised cell viability [4]: 0.7733 ± 0.0071
- normalised cell viability [5]: 0.338 ± 0.012
- normalised cell viability [6]: 0.158 ± 0.015

Compound: Nc1nccc(Oc2ccc(NC(=O)c3c[nH]cc(-c4ccc(F)cc4)c3=O)cc2F)c1Cl
- normalised cell viability [1]: 1.013 ± 0.0058
- normalised cell viability [2]: 1.02 ± 0.033
- normalised cell viability [3]: 1.033 ± 0.0058
- normalised cell viability [4]: 1.03 ± 0.015
- normalised cell viability [5]: 1.01
- normalised cell viability [6]: 1.023 ± 0.0058

Compound: CC(=O)[C@@]1(O)CC[C@H]2[C@@H]3CCC4=CC(=O)CC[C@]4(C)[C@H]3CC[C@@]21C [17alpha-hydroxyprogesterone]
- normalised cell viability [1]: 1.007 ± 0.0058
- normalised cell viability [2]: 0.9563 ± 0.0084
- normalised cell viability [3]: 1 ± 0.031
- normalised cell viability [4]: 1 ± 0.019
- normalised cell viability [5]: 1 ± 0.0095
- normalised cell viability [6]: 0.9933 ± 0.0032

Compound: Cl.N[C@@H](CCC(=O)O)C(=O)O [L-Glutamic acid hydrochloride]
- normalised cell viability [1]: 1.013 ± 0.0058
- normalised cell viability [2]: 1 ± 0.029
- normalised cell viability [3]: 1.013 ± 0.0058
- normalised cell viability [4]: 0.989 ± 0.027
- normalised cell viability [5]: 1.023 ± 0.0058
- normalised cell viability [6]: 1.02 ± 0.01

Compound: O=C1NCC2(CCN(CCc3ccccc3)CC2)O1 [Fenspiride hydrochloride]
- normalised cell viability [1]: 1.01 ± 0.016
- normalised cell viability [2]: 0.9663 ± 0.0074
- normalised cell viability [3]: 0.998 ± 0.002
- normalised cell viability [4]: 0.9877 ± 0.0093
- normalised cell viability [5]: 0.9907 ± 0.0083
- normalised cell viability [6]: 0.9977 ± 0.0011

Compound: Clc1ccc2c(c1)CCc1cccnc1C2=C1CCNCC1 [Desloratadine]
- normalised cell viability [1]: 1.01 ± 0.032
- normalised cell viability [2]: 1.03 ± 0.017
- normalised cell viability [3]: 1.02 ± 0.011
- normalised cell viability [4]: 1.01 ± 0.032
- normalised cell viability [5]: 0.9947 ± 0.005
- normalised cell viability [6]: 0.9917 ± 0.0061

Compound: Nc1nc(NCCNc2ncc(-n3ccnc3)c(-c3ccc(Cl)cc3Cl)n2)ccc1[N+](=O)[O-]
- normalised cell viability [1]: 1.11 ± 0.01
- normalised cell viability [2]: 1.2 ± 0.036
- normalised cell viability [3]: 1.07 ± 0.011
- normalised cell viability [4]: 1.11 ± 0.029
- normalised cell viability [5]: 1.02 ± 0.01
- normalised cell viability [6]: 1.047 ± 0.0058

Compound: CSC(=N)N [S-Methylisothiourea hemisulfate]
- normalised cell viability [1]: 0.994 ± 0.015
- normalised cell viability [2]: 0.97 ± 0.016
- normalised cell viability [3]: 0.996 ± 0.016
- normalised cell viability [4]: 0.998 ± 0.071
- normalised cell viability [5]: 0.994 ± 0.004
- normalised cell viability [6]: 0.992 ± 0.0061

Compound: O=C1NC(=O)c2cc(Nc3ccccc3)c(Nc3ccccc3)cc21
- normalised cell viability [1]: 1.01 ± 0.018
- normalised cell viability [2]: 1.027 ± 0.0058
- normalised cell viability [3]: 1.007 ± 0.0058
- normalised cell viability [4]: 0.9975 ± 0.0035
- normalised cell viability [5]: 1.006 ± 0.0063
- normalised cell viability [6]: 1.017 ± 0.0058

Compound: CC(C)c1ccccc1Cc1cc(C(=O)Nc2ccc(S(=O)(=O)c3ccccc3C(C)(C)C)cc2)c(O)c(O)c1O
- normalised cell viability [1]: 0.9933 ± 0.0099
- normalised cell viability [2]: 0.826 ± 0.049
- normalised cell viability [3]: 0.998 ± 0.014
- normalised cell viability [4]: 0.961 ± 0.018
- normalised cell viability [5]: 1.007 ± 0.0058
- normalised cell viability [6]: 0.813 ± 0.033

Compound: Clc1cccc(Cl)c1NC1=NCCN1 [Clonidine HCl]
- normalised cell viability [1]: 1.017 ± 0.0058
- normalised cell viability [2]: 1.04 ± 0.017
- normalised cell viability [3]: 1.01 ± 0.025
- normalised cell viability [4]: 1.05
- normalised cell viability [5]: 1.006 ± 0.0063
- normalised cell viability [6]: 1.003 ± 0.0058

Compound: Clc1cccc(Cl)c1NC1=NCCN1 [Clonidine hydrochloride]
- normalised cell viability [1]: 1.007 ± 0.0058
- normalised cell viability [2]: 0.999 ± 0.019
- normalised cell viability [3]: 0.9893 ± 0.0093
- normalised cell viability [4]: 0.992 ± 0.026
- normalised cell viability [5]: 0.9797 ± 0.0095
- normalised cell viability [6]: 0.986 ± 0.001

Compound: CN(C)S(=O)(=O)c1ccc2c(c1)/C(=C/c1cc3c([nH]1)CCCC3)C(=O)N2
- normalised cell viability [1]: 0.9813 ± 0.0042
- normalised cell viability [2]: 0.837 ± 0.022
- normalised cell viability [3]: 1.02 ± 0.052
- normalised cell viability [4]: 1 ± 0.013
- normalised cell viability [5]: 0.996 ± 0.0027
- normalised cell viability [6]: 0.827 ± 0.039

Compound: CN1CCN(C2Cc3ccccc3Sc3ccc(Cl)cc32)CC1 (racemic) [(±)-Octoclothepin maleate]
- normalised cell viability [1]: 1.01 ± 0.011
- normalised cell viability [2]: 0.9477 ± 0.0045
- normalised cell viability [3]: 1.01 ± 0.015
- normalised cell viability [4]: 1.05 ± 0.087
- normalised cell viability [5]: 1 ± 0.0095
- normalised cell viability [6]: 1 ± 0.011

Compound: N=C(N)NCCCCNC(=N)N [Arcaine sulfate]
- normalised cell viability [1]: 0.987 ± 0.012
- normalised cell viability [2]: 0.994 ± 0.033
- normalised cell viability [3]: 0.993 ± 0.0066
- normalised cell viability [4]: 1.01 ± 0.038
- normalised cell viability [5]: 0.987 ± 0.013
- normalised cell viability [6]: 0.9957 ± 0.0045

Compound: CCCNC(=O)NS(=O)(=O)c1ccc(Cl)cc1 [Chlorpropamide]
- normalised cell viability [1]: 1.01 ± 0.011
- normalised cell viability [2]: 1.01 ± 0.016
- normalised cell viability [3]: 1.01
- normalised cell viability [4]: 1.02 ± 0.014
- normalised cell viability [5]: 0.998 ± 0.002
- normalised cell viability [6]: 1.013 ± 0.0058

Compound: COc1ccc(-c2nc(N3CCOCC3)c3sc(CN(C)c4ncc(C(=O)NO)cn4)cc3n2)cn1
- normalised cell viability [1]: 0.00442 ± 0.0038
- normalised cell viability [2]: 0.00164 ± 0.00085
- normalised cell viability [3]: 0.0384 ± 0.044
- normalised cell viability [4]: 0.00149 ± 0.001
- normalised cell viability [5]: 0.00371 ± 0.0034
- normalised cell viability [6]: 0.000104 ± 0.00053

Compound: Cn1ncnc1[C@H]1c2n[nH]c(=O)c3cc(F)cc(c23)N[C@@H]1c1ccc(F)cc1
- normalised cell viability [1]: 0.996 ± 0.012
- normalised cell viability [2]: 0.934 ± 0.028
- normalised cell viability [3]: 1.01 ± 0.017
- normalised cell viability [4]: 1.05 ± 0.015
- normalised cell viability [5]: 0.436 ± 0.0095
- normalised cell viability [6]: 0.28 ± 0.016
